Test results from the supplement of paper PMC8728848.
This is one part of the list.

Key:
Test in all cases: glycan array binding signal (z-score within array); higher = stronger binding
Conditions in all cases: glycan notation: IUPAC condensed, linker removed
[1] = molecular target: Neu5Ac(a2-6)Gal(b1-4)GlcNAc(b1-2)Man(a1-3)[Neu5Ac(a2-6)Gal(b1-4)GlcNAc(b1-2)Man(a1-6)]Man(b1-4)GlcNAc(b1-4)GlcNAc
Method in brief: (§1)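 The Consortium for Functional Glycomics database supplied 3228 glycan arrays, of which those lacking an available protein sequence were dropped. The binding signal, a within-array Z-score, was averaged across arrays of the same protein sequence and across linkers. Negative scores can be read as non-binding.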

[2] = molecular target: Neu5Ac(a2-6)Gal(b1-4)GlcNAc(b1-2)Man(a1-6)Man(b1-4)GlcNAc(b1-4)GlcNAc
Method in brief: as §1

[3] = molecular target: Neu5Ac(a2-6)Gal(b1-4)GlcNAc(b1-2)Man(a1-6)[Gal(b1-4)GlcNAc(b1-2)Man(a1-3)]Man(b1-4)GlcNAc(b1-4)GlcNAc
Method in brief: as §1

[4] = molecular target: Neu5Ac(a2-6)Gal(b1-4)GlcNAc(b1-2)Man(a1-6)[GlcNAc(b1-2)Man(a1-3)]Man(b1-4)GlcNAc(b1-4)GlcNAc
Method in brief: as §1

[5] = molecular target: Neu5Ac(a2-6)Gal(b1-4)GlcNAc(b1-2)Man(a1-6)[Man(a1-3)]Man(b1-4)GlcNAc(b1-4)GlcNAc
Method in brief: as §1

[6] = molecular target: Neu5Ac(a2-6)Gal(b1-4)GlcNAc(b1-3)Gal(b1-3)GlcNAc
Method in brief: as §1

[7] = molecular target: Neu5Ac(a2-6)Gal(b1-4)GlcNAc(b1-3)Gal(b1-4)GlcNAc
Method in brief: as §1

[8] = molecular target: Neu5Ac(a2-6)Gal(b1-4)GlcNAc(b1-3)Gal(b1-4)GlcNAc(b1-3)Gal(b1-4)GlcNAc
Method in brief: as §1

[9] = molecular target: Neu5Ac(a2-6)Gal(b1-4)GlcNAc(b1-3)Gal(b1-4)[Fuc(a1-3)]GlcNAc(b1-3)Gal(b1-4)[Fuc(a1-3)]GlcNAc
Method in brief: as §1

[10] = molecular target: Neu5Ac(a2-6)Gal(b1-4)GlcNAc(b1-3)GalNAc
Method in brief: as §1

[11] = molecular target: Neu5Ac(a2-6)Gal(b1-4)GlcNAc6S
Method in brief: as §1

Neu5Ac(a2-6)GalNAc = molecular target: Neu5Ac(a2-6)GalNAc
Method in brief: as §1

[12] = molecular target: Neu5Ac(a2-6)GalNAc(b1-4)GlcNAc
Method in brief: as §1

[13] = molecular target: Neu5Ac(a2-6)GlcNAc(b1-4)GlcNAc
Method in brief: as §1

[14] = molecular target: Neu5Ac(a2-6)GlcNAc(b1-4)GlcNAc(b1-4)GlcNAc
Method in brief: as §1

Neu5Ac(a2-8)Neu5Ac = molecular target: Neu5Ac(a2-8)Neu5Ac
Method in brief: as §1

[15] = molecular target: Neu5Ac(a2-8)Neu5Ac(a2-3)Gal(b1-3)GalNAc(b1-4)[Neu5Ac(a2-8)Neu5Ac(a2-3)]Gal(b1-4)Glc
Method in brief: as §1

[16] = molecular target: Neu5Ac(a2-8)Neu5Ac(a2-3)Gal(b1-4)Glc
Method in brief: as §1

[17] = molecular target: Neu5Ac(a2-8)Neu5Ac(a2-3)[Gal(b1-3)GalNAc(b1-4)]Gal(b1-4)Glc
Method in brief: as §1

[18] = molecular target: Neu5Ac(a2-8)Neu5Ac(a2-3)[GalNAc(b1-4)]Gal(b1-4)Glc
Method in brief: as §1

[19] = molecular target: Neu5Ac(a2-8)Neu5Ac(a2-8)Neu5Ac
Method in brief: as §1

[20] = molecular target: Neu5Ac(a2-8)Neu5Ac(a2-8)Neu5Ac(a2-3)Gal(b1-4)Glc
Method in brief: as §1

[21] = molecular target: Neu5Ac(a2-8)Neu5Ac(a2-8)Neu5Ac(a2-3)[GalNAc(b1-4)]Gal(b1-4)Glc
Method in brief: as §1

[22] = molecular target: Neu5Ac(a2-8)Neu5Ac(a2-8)Neu5Ac(a2-8)Neu5Ac(a2-3)[GalNAc(b1-4)]Gal(b1-4)Glc
Method in brief: as §1

[23] = molecular target: Neu5Ac(b2-6)Gal(b1-4)GlcNAc
Method in brief: as §1

Neu5Ac(b2-6)GalNAc = molecular target: Neu5Ac(b2-6)GalNAc
Method in brief: as §1

[24] = molecular target: Neu5Ac9Ac(a2-3)Gal(b1-3)GlcNAc
Method in brief: as §1

[25] = molecular target: Neu5Ac9Ac(a2-3)Gal(b1-4)GlcNAc
Method in brief: as §1

[26] = molecular target: Neu5Ac9Ac(a2-6)Gal(b1-4)GlcNAc
Method in brief: as §1

[27] = molecular target: Neu5Gc(a2-3)Gal(b1-3)GlcNAc
Method in brief: as §1

[28] = molecular target: Neu5Gc(a2-3)Gal(b1-3)[Fuc(a1-4)]GlcNAc
Method in brief: as §1

Neu5Gc(a2-3)Gal(b1-4)Glc = molecular target: Neu5Gc(a2-3)Gal(b1-4)Glc
Method in brief: as §1

[29] = molecular target: Neu5Gc(a2-3)Gal(b1-4)GlcNAc
Method in brief: as §1

[30] = molecular target: Neu5Gc(a2-3)Gal(b1-4)[Fuc(a1-3)]GlcNAc
Method in brief: as §1

[31] = molecular target: Neu5Gc(a2-6)Gal(b1-4)GlcNAc
Method in brief: as §1

Neu5Gc(a2-6)GalNAc = molecular target: Neu5Gc(a2-6)GalNAc
Method in brief: as §1

[32] = molecular target: Neu5Gc(b2-6)Gal(b1-4)GlcNAc
Method in brief: as §1

B1: Eosinophil cationic protein (ECP) (Homo sapiens), P12724 (protein)
chain: MVPKLFTSQICLLLLLGLMGVEGSLHARPPQFTRAQWFAIQHISLNPPRCTIAMRAINNYRWRCKNQNTFLRTTFANVVNVCGNQSIRCPHNRTLNNCHRSRFRVPLLHCDLINPGAQNISNCTYADRPGRRFYVVACDNRDPRDSPRYPVVPVHLDTTI
glycan array binding signal (z-score) [1]: 0.19
glycan array binding signal (z-score) [2]: -0.261
glycan array binding signal (z-score) [3]: 0.038
glycan array binding signal (z-score) [4]: 1.09
glycan array binding signal (z-score) [5]: -0.157
glycan array binding signal (z-score) [6]: -0.28
glycan array binding signal (z-score) [7]: -0.126
glycan array binding signal (z-score) [8]: -0.226
glycan array binding signal (z-score) [9]: 0.31
glycan array binding signal (z-score) [10]: -0.272
glycan array binding signal (z-score) [11]: -0.249
glycan array binding signal (z-score) (Neu5Ac(a2-6)GalNAc): 0.284
glycan array binding signal (z-score) [12]: -0.157
glycan array binding signal (z-score) [13]: -0.372
glycan array binding signal (z-score) [14]: -0.481
glycan array binding signal (z-score) (Neu5Ac(a2-8)Neu5Ac): -0.226
glycan array binding signal (z-score) [15]: 0.344
glycan array binding signal (z-score) [16]: -0.245
glycan array binding signal (z-score) [17]: 0.054
glycan array binding signal (z-score) [18]: 0.074
glycan array binding signal (z-score) [19]: -0.079
glycan array binding signal (z-score) [20]: -0.48
glycan array binding signal (z-score) [21]: -0.44
glycan array binding signal (z-score) [22]: 0.068
glycan array binding signal (z-score) [23]: -0.433
glycan array binding signal (z-score) (Neu5Ac(b2-6)GalNAc): -0.059
glycan array binding signal (z-score) [24]: -0.406
glycan array binding signal (z-score) [25]: 0.112
glycan array binding signal (z-score) [26]: -0.712
glycan array binding signal (z-score) [27]: 0.505
glycan array binding signal (z-score) [28]: 0.268
glycan array binding signal (z-score) (Neu5Gc(a2-3)Gal(b1-4)Glc): 0.028
glycan array binding signal (z-score) [29]: -0.309
glycan array binding signal (z-score) [30]: -0.367
glycan array binding signal (z-score) [31]: -0.202
glycan array binding signal (z-score) (Neu5Gc(a2-6)GalNAc): -0.003
glycan array binding signal (z-score) [32]: 0.059
